Reference: patent US20240376128A1, “N-CYCLOPROPYLPYRIDO [4, 3-D] PYRIMIDIN-4-AMINE DERIVATIVES AND USES THEREOF” (Jacobio Pharmaceuticals Co., Ltd., priority 2021, published 2024)

Key:
Assay in all cases: Phospho-ERK1/2(THR202/TYR204) HTRF assay
Type in all cases: cell-based
[1] = system: NCI-H460 cell line (K-Ras Q61H); settings: Homo sapiens; NCI-H460 cells (K-Ras Q61H), 2 hours incubation; read-out: p-ERK, IC50(nM) NCI-H460
[2] = system: MKN-1 cell line (K-Ras WT amplification); settings: Homo sapiens; MKN-1 cells (K-Ras WT amplification), 2 hours incubation; read-out: p-ERK, IC50(nM) MKN-1
[3] = system: TCC-PAN2 cell line (K-Ras G12R); settings: TCC-PAN2 cells (K-Ras G12R), 2 hours incubation; read-out: p-ERK, IC50(nM) TCC-PAN2

[2H]C([2H])([2H])N(c1nc(OC[C@@]23CCCN2C[C@H](F)C3)nc2c(F)c(-c3cc(O)cc4ccc(F)c(C#C)c34)ncc12)C1CC1 [Compound 4, 4-(4-(cyclopropyl(methyl-d3)amino)-8-fluoro-2-(((2R,7aS)-2-fluorotetrahydro-1H-pyrrolizin-7a(5H)-yl)methoxy)pyrido[4,3-d]pyrimidin-7-yl)-5-ethynyl-6-fluoronaphthalen-2-ol]
IC50 [1]: 38.3 nM | IC50 [2]: 14.4 nM | IC50 [3]: 392 nM
